Measured values from the supplement of paper PMC3334620.
Whole data set: some 33,000 sequences, median “E-score (-0.5 to 0.5)” near -0.032, cut for the highest 2% near 0.36. The list shows a part of the results.

Target: T1, Sko1 (UniProt Q02100)
T1 sequence: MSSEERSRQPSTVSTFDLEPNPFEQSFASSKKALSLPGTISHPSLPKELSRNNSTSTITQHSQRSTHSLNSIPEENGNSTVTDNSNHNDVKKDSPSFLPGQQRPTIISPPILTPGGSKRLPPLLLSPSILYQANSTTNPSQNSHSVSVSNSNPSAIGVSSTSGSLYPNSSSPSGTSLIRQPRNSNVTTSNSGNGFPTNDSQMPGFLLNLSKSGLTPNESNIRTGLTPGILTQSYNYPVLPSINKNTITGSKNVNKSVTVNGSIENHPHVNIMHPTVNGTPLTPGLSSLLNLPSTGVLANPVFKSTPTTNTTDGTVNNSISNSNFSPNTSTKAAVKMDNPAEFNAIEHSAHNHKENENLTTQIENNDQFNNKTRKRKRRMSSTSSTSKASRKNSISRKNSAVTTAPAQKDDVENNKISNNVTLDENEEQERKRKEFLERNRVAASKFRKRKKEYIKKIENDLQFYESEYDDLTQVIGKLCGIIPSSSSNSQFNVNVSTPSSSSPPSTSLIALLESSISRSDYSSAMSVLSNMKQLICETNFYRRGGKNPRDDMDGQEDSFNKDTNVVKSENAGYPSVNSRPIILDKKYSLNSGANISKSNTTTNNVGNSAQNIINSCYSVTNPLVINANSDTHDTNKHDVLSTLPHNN
Assay: PBM E-score (8-mer binding enrichment) (E-score (-0.5 to 0.5)); higher = stronger / more preferred TF binding; most listed sequences are background and not binding sites
Details: protein concentration: 200 nM; construct: GST-full length
Procedure: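 Universal 'all 10-mer' protein binding microarrays (Agilent AMADID 015681) probed with GST-tagged S. cerevisiae TFs (full-length or DBD) made by in vitro transcription/translation (PURExpress), about 100-200 nM. Bound TF was detected with fluorescent anti-GST. Each ungapped 8-mer (which stands for itself and its reverse complement) is scored by the PBM enrichment score (E-score), a modified Wilcoxon-Mann-Whitney statistic from -0.5 to +0.5, computed with the Universal PBM Analysis Suite. Scale: above 0.35 generally sequence-specific binding.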

Row | Sequence | PBM E-score
1 | CGGTACCG | 0.0309
2 | ACGGTGGG | -0.192
3 | ATCGTAAC | 0.241
4 | GGCTTTTA | -0.137
5 | CGCGAGGA | -0.246
6 | ACTTGTAA | 0.0218
7 | AAATAAGC | 0.0995
8 | GCTGGTCC | -0.219
9 | AATATGTC | 0.265
10 | CGTGGGCC | -0.024
11 | AGCAAAAT | 0.13
12 | CTGGACGA | -0.179
13 | CGGAACAA | 0.0631
14 | AAAACGGC | -0.0452
15 | AGTCGGTC | -0.308
16 | CGGTCTTA | -0.159
17 | AATGTTAC | 0.143
18 | AGCTTCTC | -0.203
19 | GTCACGAA | 0.27
20 | CGGACAAA | 0.0463
21 | CACATACC | 0.0146
22 | GGTGGCGA | -0.0685

Row | Sequence | PBM E-score
23 | GAACTTAC | 0.165
24 | CGATGTGA | 0.00099
25 | ATACCTGG | -0.252
26 | CAGTGAGA | 0.0132
27 | CGAAGACG | 0.00277
28 | AACGTTGT | 0.268
29 | TCCAAACA | -0.0521
30 | GACAAGAC | -0.113
31 | CGCTTTTC | -0.12
32 | CTCTGGCA | -0.236
33 | CTTTTACC | 0.11
34 | TAAGATAA | 0.0619
35 | CTGTTGTC | -0.0176
36 | AATCAGCC | -0.108
37 | TTCTTCAA | -1e-05
38 | AGGGTACA | -0.068
39 | ACAGGGTC | -0.166
40 | ATCTTGAA | 0.0356
41 | GTTTATGA | 0.214
42 | CGTCTTAA | 0.209
43 | ACGGTAGT | -0.0209
44 | AAGGTGTC | -0.0366

Row | Sequence | PBM E-score
45 | GCCCACAC | -0.0849
46 | AATAGGGG | -0.0991
47 | CGCAGGAG | -0.087
48 | CTATGCTC | -0.139
49 | ATTAGGGA | -0.118
50 | AAACGCTG | 0.00852
51 | CTTCCTTC | -0.284
52 | CATACTTC | 0.073
53 | AGAAAGAT | 0.0566
54 | GTAACCAC | 0.0486
55 | TGCGGCAA | 0.0508
56 | GCTGGCTA | -0.3
57 | AAAACACG | 0.284
58 | ATATGTAG | 0.0107
59 | CCAGCGGG | -0.212
60 | ATGCAGAA | 0.228
61 | AGCTTAAC | 0.108
62 | AGTTTTCC | -0.0135
63 | GCAGTAAA | -0.0741
64 | CCTTCTAA | -0.029
65 | ATATCATG | 0.0825
66 | CGAATACA | 0.0848

Row | Sequence | PBM E-score
67 | ATTATTAC | 0.308
68 | CATGAATG | 0.1
69 | ATGTGCAG | -0.0677
70 | CCTAGGGC | -0.336
71 | CACTTGTA | 0.118
72 | TTAGAAAA | 0.0783
73 | ACTTTTCG | 0.181
74 | CTGAGCTA | -0.00141
75 | TAACTGAA | 0.0502
76 | GCAGTGCA | -0.179
77 | ACCACGGA | -0.247
78 | CACACAAA | 0.114
79 | GTGCGCGA | 0.103
80 | CAGTTCAC | -0.0413
81 | AGAGGCAC | -0.136
82 | ATATTGTG | 0.0398
83 | ATTAACAG | 0.0259
84 | GTCAGCTA | -0.0682
85 | GTATGGCA | 0.128
86 | ATGCCACG | 0.0587
